{"source": "the supplement of paper PMC8728848", "binders": {"B1": {"name": "CVN (Nostoc ellipsosporum), P81180 (protein)", "chain": "LGKFSQTCYNSAIQGSVLTSTCERTNGGYNTSSIDLNSVIENVDGSLKWQPSNFIETCRNTQLAGSSELAAECKTRAQQFVSTKINLDDHIANIDGTLKYE"}}, "test_in_all_cases": "glycan array binding signal (z-score within array); higher = stronger binding", "settings_in_all_cases": "glycan notation: IUPAC condensed, linker removed", "key": {"[1]": {"biological_target": "Gal6S(b1-4)Glc6S", "how_it_was_run": "(§1)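 The binding signal is a Z-score computed within each array and averaged over linkers. Arrays of the same protein sequence at different concentrations or buffers were also averaged together. Data originate from 3228 arrays in the Consortium for Functional Glycomics database, kept only where the protein sequence was available.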"}, "[2]": {"biological_target": "Gal6S(b1-4)GlcNAc", "how_it_was_run": "as §1"}, "[3]": {"biological_target": "Gal6S(b1-4)GlcNAc6S", "how_it_was_run": "as §1"}, "[4]": {"biological_target": "GalNAc(a1-3)Gal", "how_it_was_run": "as §1"}, "[5]": {"biological_target": "GalNAc(a1-3)GalNAc", "how_it_was_run": "as §1"}, "[6]": {"biological_target": "GalNAc(a1-3)GalNAc(b1-3)Gal(a1-4)Gal(b1-4)Glc", "how_it_was_run": "as §1"}, "[7]": {"biological_target": "GalNAc(a1-3)GalNAc(b1-3)Gal(a1-4)Gal(b1-4)GlcNAc", "how_it_was_run": "as §1"}, "[8]": {"biological_target": "GalNAc(b1-3)Gal", "how_it_was_run": "as §1"}, "[9]": {"biological_target": "GalNAc(b1-3)Gal(a1-4)Gal(b1-4)GlcNAc", "how_it_was_run": "as §1"}, "[10]": {"biological_target": "GalNAc(b1-3)Gal(a1-4)Gal(b1-4)GlcNAc(b1-3)Gal(b1-4)Glc", "how_it_was_run": "as §1"}, "[11]": {"biological_target": "GalNAc(b1-3)Gal(a1-6)Gal(b1-4)Glc", "how_it_was_run": "as §1"}, "[12]": {"biological_target": "GalNAc(b1-3)GalNAc", "how_it_was_run": "as §1"}, "[13]": {"biological_target": "GalNAc(b1-4)Gal(b1-4)Glc", "how_it_was_run": "as §1"}, "[14]": {"biological_target": "GalNAc(b1-4)GlcNAc", "how_it_was_run": "as §1"}, "[15]": {"biological_target": "GalNAc(b1-4)GlcNAc(b1-2)Man(a1-3)[GalNAc(b1-4)GlcNAc(b1-2)Man(a1-6)]Man(b1-4)GlcNAc(b1-4)GlcNAc", "how_it_was_run": "as §1"}, "[16]": {"biological_target": "GalNAc(b1-6)GalNAc", "how_it_was_run": "as §1"}, "[17]": {"biological_target": "Glc(a1-4)Glc", "how_it_was_run": "as §1"}, "[18]": {"biological_target": "Glc(a1-4)Glc(a1-4)Glc(a1-4)Glc", "how_it_was_run": "as §1"}, "[19]": {"biological_target": "Glc(a1-6)Glc(a1-6)Glc", "how_it_was_run": "as §1"}, "[20]": {"biological_target": "Glc(a1-6)Glc(a1-6)Glc(a1-6)Glc", "how_it_was_run": "as §1"}, "[21]": {"biological_target": "Glc(b1-4)Glc", "how_it_was_run": "as §1"}, "[22]": {"biological_target": "Glc(b1-6)Glc", "how_it_was_run": "as §1"}, "[23]": {"biological_target": "GlcA(b1-3)Gal", "how_it_was_run": "as §1"}, "[24]": {"biological_target": "GlcA(b1-3)GlcNAc", "how_it_was_run": "as §1"}, "[25]": {"biological_target": "GlcA(b1-6)Gal", "how_it_was_run": "as §1"}, "[26]": {"biological_target": "GlcNAc(a1-3)Gal(b1-4)GlcNAc", "how_it_was_run": "as §1"}, "[27]": {"biological_target": "GlcNAc(a1-4)Gal(b1-3)GlcNAc", "how_it_was_run": "as §1"}, "[28]": {"biological_target": "GlcNAc(a1-4)Gal(b1-4)GalNAc", "how_it_was_run": "as §1"}, "[29]": {"biological_target": "GlcNAc(a1-4)Gal(b1-4)GlcNAc", "how_it_was_run": "as §1"}, "[30]": {"biological_target": "GlcNAc(a1-4)Gal(b1-4)GlcNAc(b1-3)Gal(b1-4)Glc", "how_it_was_run": "as §1"}, "[31]": {"biological_target": "GlcNAc(a1-4)Gal(b1-4)GlcNAc(b1-3)Gal(b1-4)GlcNAc", "how_it_was_run": "as §1"}, "[32]": {"biological_target": "GlcNAc(a1-4)Gal(b1-4)GlcNAc(b1-3)Gal(b1-4)GlcNAc(b1-3)Gal(b1-4)GlcNAc", "how_it_was_run": "as §1"}, "[33]": {"biological_target": "GlcNAc(a1-4)Gal(b1-4)GlcNAc(b1-3)Gal(b1-4)[Fuc(a1-3)]GlcNAc(b1-3)Gal(b1-4)[Fuc(a1-3)]GlcNAc", "how_it_was_run": "as §1"}, "[34]": {"biological_target": "GlcNAc(a1-6)Gal(b1-4)GlcNAc", "how_it_was_run": "as §1"}, "[35]": {"biological_target": "GlcNAc(b1-2)Gal(b1-3)GalNAc", "how_it_was_run": "as §1"}, "[36]": {"biological_target": "GlcNAc(b1-2)Man(a1-3)[GlcNAc(b1-2)Man(a1-6)]Man(b1-4)GlcNAc(b1-4)GlcNAc", "how_it_was_run": "as §1"}, "[37]": {"biological_target": "GlcNAc(b1-2)Man(a1-3)[GlcNAc(b1-2)Man(a1-6)]Man(b1-4)GlcNAc(b1-4)[Fuc(a1-6)]GlcNAc", "how_it_was_run": "as §1"}, "[38]": {"biological_target": "GlcNAc(b1-2)Man(a1-3)[GlcNAc(b1-4)][GlcNAc(b1-2)Man(a1-6)]Man(b1-4)GlcNAc(b1-4)GlcNAc", "how_it_was_run": "as §1"}, "[39]": {"biological_target": "GlcNAc(b1-2)[GlcNAc(b1-4)]Man(a1-3)[GlcNAc(b1-2)Man(a1-6)]Man(b1-4)GlcNAc(b1-4)GlcNAc", "how_it_was_run": "as §1"}, "[40]": {"biological_target": "GlcNAc(b1-2)[GlcNAc(b1-4)]Man(a1-3)[GlcNAc(b1-4)][GlcNAc(b1-2)Man(a1-6)]Man(b1-4)GlcNAc(b1-4)GlcNAc", "how_it_was_run": "as §1"}, "[41]": {"biological_target": "GlcNAc(b1-2)[GlcNAc(b1-4)]Man(a1-3)[GlcNAc(b1-4)][GlcNAc(b1-2)[GlcNAc(b1-6)]Man(a1-6)]Man(b1-4)GlcNAc(b1-4)GlcNAc", "how_it_was_run": "as §1"}, "[42]": {"biological_target": "GlcNAc(b1-2)[GlcNAc(b1-6)]Man(a1-6)[GlcNAc(b1-2)Man(a1-3)]Man(b1-4)GlcNAc(b1-4)GlcNAc", "how_it_was_run": "as §1"}, "[43]": {"biological_target": "GlcNAc(b1-2)[GlcNAc(b1-6)]Man(a1-6)[GlcNAc(b1-2)Man(a1-3)][GlcNAc(b1-4)]Man(b1-4)GlcNAc(b1-4)GlcNAc", "how_it_was_run": "as §1"}, "[44]": {"biological_target": "GlcNAc(b1-3)Gal", "how_it_was_run": "as §1"}, "[45]": {"biological_target": "GlcNAc(b1-3)Gal(b1-3)GalNAc", "how_it_was_run": "as §1"}}, "note": "This is one part of the list.", "data": [{"binder": "B1", "values": [{"measurement": "glycan array binding signal (z-score)", "setting": "[1]", "value": -0.301}, {"measurement": "glycan array binding signal (z-score)", "setting": "[2]", "value": -0.306}, {"measurement": "glycan array binding signal (z-score)", "setting": "[3]", "value": -0.302}, {"measurement": "glycan array binding signal (z-score)", "setting": "[4]", "value": -0.308}, {"measurement": "glycan array binding signal (z-score)", "setting": "[5]", "value": -0.308}, {"measurement": "glycan array binding signal (z-score)", "setting": "[6]", "value": -0.296}, {"measurement": "glycan array binding signal (z-score)", "setting": "[7]", "value": -0.281}, {"measurement": "glycan array binding signal (z-score)", "setting": "[8]", "value": -0.304}, {"measurement": "glycan array binding signal (z-score)", "setting": "[9]", "value": -0.294}, {"measurement": "glycan array binding signal (z-score)", "setting": "[10]", "value": -0.303}, {"measurement": "glycan array binding signal (z-score)", "setting": "[11]", "value": -0.305}, {"measurement": "glycan array binding signal (z-score)", "setting": "[12]", "value": -0.306}, {"measurement": "glycan array binding signal (z-score)", "setting": "[13]", "value": -0.305}, {"measurement": "glycan array binding signal (z-score)", "setting": "[14]", "value": -0.303}, {"measurement": "glycan array binding signal (z-score)", "setting": "[15]", "value": -0.25}, {"measurement": "glycan array binding signal (z-score)", "setting": "[16]", "value": -0.305}, {"measurement": "glycan array binding signal (z-score)", "setting": "[17]", "value": -0.263}, {"measurement": "glycan array binding signal (z-score)", "setting": "[18]", "value": -0.307}, {"measurement": "glycan array binding signal (z-score)", "setting": "[19]", "value": -0.307}, {"measurement": "glycan array binding signal (z-score)", "setting": "[20]", "value": -0.3}, {"measurement": "glycan array binding signal (z-score)", "setting": "[21]", "value": -0.305}, {"measurement": "glycan array binding signal (z-score)", "setting": "[22]", "value": -0.302}, {"measurement": "glycan array binding signal (z-score)", "setting": "[23]", "value": -0.307}, {"measurement": "glycan array binding signal (z-score)", "setting": "[24]", "value": -0.306}, {"measurement": "glycan array binding signal (z-score)", "setting": "[25]", "value": -0.306}, {"measurement": "glycan array binding signal (z-score)", "setting": "[26]", "value": -0.305}, {"measurement": "glycan array binding signal (z-score)", "setting": "[27]", "value": -0.021}, {"measurement": "glycan array binding signal (z-score)", "setting": "[28]", "value": -0.165}, {"measurement": "glycan array binding signal (z-score)", "setting": "[29]", "value": -0.211}, {"measurement": "glycan array binding signal (z-score)", "setting": "[30]", "value": -0.308}, {"measurement": "glycan array binding signal (z-score)", "setting": "[31]", "value": -0.203}, {"measurement": "glycan array binding signal (z-score)", "setting": "[32]", "value": -0.3}, {"measurement": "glycan array binding signal (z-score)", "setting": "[33]", "value": 0.346}, {"measurement": "glycan array binding signal (z-score)", "setting": "[34]", "value": -0.301}, {"measurement": "glycan array binding signal (z-score)", "setting": "[35]", "value": -0.306}, {"measurement": "glycan array binding signal (z-score)", "setting": "[36]", "value": -0.281}, {"measurement": "glycan array binding signal (z-score)", "setting": "[37]", "value": 1.13}, {"measurement": "glycan array binding signal (z-score)", "setting": "[38]", "value": -0.304}, {"measurement": "glycan array binding signal (z-score)", "setting": "[39]", "value": 0.024}, {"measurement": "glycan array binding signal (z-score)", "setting": "[40]", "value": -0.298}, {"measurement": "glycan array binding signal (z-score)", "setting": "[41]", "value": -0.294}, {"measurement": "glycan array binding signal (z-score)", "setting": "[42]", "value": -0.3}, {"measurement": "glycan array binding signal (z-score)", "setting": "[43]", "value": -0.302}, {"measurement": "glycan array binding signal (z-score)", "setting": "[44]", "value": -0.304}, {"measurement": "glycan array binding signal (z-score)", "setting": "[45]", "value": -0.296}]}]}
